In the supplement of paper PMC11417369:
± gives the standard deviation of the averaged measurements. The list shows a part of the results.

Tested on: PfAP2-I AP2 domain 3 (GST-tagged)
Experiment: gcPBM binding intensity (ln(normalized median fluorescence intensity)); higher = stronger DNA binding
Summary of the method: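 The binding buffer was 1× PBS containing 1% milk, 0.2 mg/ml BSA, 0.5% salmon testes DNA and 0.03% Triton X-100. In it, GST-tagged P. falciparum DNA-binding domains expressed in E. coli were applied for 1 h to an Agilent 4 × 180k array of primer-extended double-stranded 36-bp intergenic genomic probes plus negative controls. Binding intensity, read with Alexa488 anti-GST antibody and a 488 nm scan, is the highest Masliner-normalised natural-log median intensity across replicate spots of either probe orientation.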

Sequence	gcPBM binding intensity (ln)
TGTATTAATTTGTAATGTACACATATATGTATTATA [XGTACX_site4152]	7.87 ± 0.28
TAAGTAAACTTTCTATGTACATATTTTCAAATATTA [XGTACX_site6260]	7.78 ± 0.31
CTTATATATACATATACACACACACCCATATATATA [CACACA_site8705]	8.43 ± 0.59
ATGTATGCAAAAATGGTGCATATTAAATGTATAACA [GTGCAC_site9722]	10.8 ± 0.49
AAAAAAAAAAGAAACACACACATTTGTCTATAATAT [CACACA_site7063]	7.71 ± 0.87
TTTGTTCTTTTAATGTGTACATATACACTTGTAATA [XGTACX_site2635]	7.92 ± 0.47
TGACCTTATGTGTTTTGAAGGGGAAAGGAAATGCGC [XGTACX_negctrl_site411]	7.78 ± 0.68
TATAAAAATAGGATTTGTACATATAAAAAAGGAAAA [XGTACX_site8678]	7.79 ± 0.69
TAATATAAAAAAGGTACTACACGAAGGAATAAAAAT [XGTACX_site6872]	8.35 ± 0.86
CAGAAATAGAGATACACACACACATATATTTATGTA [CACACA_site3968]	7.46 ± 0.64
TATAAATATATGTATGCACACATTTTTTTTGGAAAA [CACACA_site1070]	8.55 ± 0.57
AATAATTTTTTAAACACACACACATATATATATATA [CACACA_site95]	9.32 ± 0.28
TGTTTAAAAATAATTTGTACATATATTTTATTTCAT [XGTACX_site1272]	7.59 ± 0.38
ATAAAGAAATAAAGTTGTACATTATATATATATATA [XGTACX_site7729]	9.23 ± 0.25
AATACATACGGACACACACACACATATATATATATA [CACACA_site5884]	9.52 ± 0.26
TCTTTTGTTTAACCTACATGCAGAATATAAGTCTTC [TGCATGCA_site99]	7.93 ± 0.68
ATTCATTATTCACCTTGTACACAAATGATTATCGTA [XGTACX_site455]	8.19 ± 0.49
AGTAAAAAAAATATCTGTACATATTAATATAAATGT [XGTACX_site6234]	7.88 ± 0.4
AAATATTATTCTTTTATTTTTAAACATATAATTATA [GTGCAC_negctrl_site136]	7.7 ± 0.28

Sequence	gcPBM binding intensity (ln)
ATCTAAAAATTTTACGCACACAAGTAAAAAAAAAAA [CACACA_site2485]	8.97 ± 0.11
TTATACACTGATAAAAGTACATTTGTATGTTTTTTT [XGTACX_site8959]	7.63 ± 0.42
TTTTATAATCATAATAGTACTTTTTCTTTTTCACAT [XGTACX_site5017]	7.67 ± 0.9
TAATCATAAAAAAATACACACATATAAAATATAGAT [CACACA_site7020]	7.51 ± 0.63
AAAAGTTAAGCAACAAATTTTATTTCTTATATATAA [TGCATGCA_negctrl_site134]	7.73 ± 0.57
ATATTTATAAATTGCACACAAATAATAACATTATAT [CACACA_site5322]	8.68 ± 0.13
AAAATTCTTATAAGATGTACAATTTGTAACACTATA [XGTACX_site510]	7.78 ± 0.35
TTATACTCACGTTACACACACACAATATATATATAT [CACACA_site4137]	9.095 ± 0.064
TTTTTTACAACACGAAAATGAACAATTATAATAAAT [TGCATGCA_negctrl_site301]	7.89 ± 0.74
TCACATACATTACTTACACACCATATTAAGATATAC [CACACA_site4415]	8.31 ± 0.21
TTTTGTATATATTATTGTACTTTTAATATAGATCGT [XGTACX_site5830]	7.85 ± 0.34
AAATAAATATATAATACACACAAAAATATAAAATGT [CACACA_site3711]	8.1 ± 0.54
TAACATAAATCCATACGTACCTATATATATATAATA [XGTACX_site2626]	7.72 ± 0.49
ATTTATATTAAAAGTGTGCACTTTTTTTTTTTTTTT	9.77 ± 0.085
TCATTCCATACTTTAACACACAAATATATTTAATCC [CACACA_site145]	7.96 ± 0.68
ATATATATATATATATGTACATATTCACTTATATTT [XGTACX_site5324]	9.56 ± 0.65
TTTTTTTTTTTGTTTTGTACATAAATTGCAACCAAT [XGTACX_site8949]	8.45 ± 0.74
TGTAGACTACATAGTAGTACATAATATATACATATA [XGTACX_site367]	7.46 ± 0.29
TTTTCTTTTAAACATATATATATATATATATATATA [XGTACX_negctrl_site559]	9.27 ± 0.54

Sequence	gcPBM binding intensity (ln)
TATATATATATAATTACACACAATGTTCTATATATA [CACACA_site3235]	9.22 ± 0.17
TATTTATTTAATTACACACGAACATATAACCATTTC [CACACA_site211]	8.04 ± 0.38
ATTTCTTTGCTTTTCAAACACACAAAAGTTATTATA [CACACA_site520]	8.09 ± 0.57
GTTGAAAAAAAAAATGCACACGCATACATATAATAT [CACACA_site8117]	8.71 ± 0.29
GAATATTACATGTATTGTACAGGTAATGTTAAAAAT [XGTACX_site8274]	7.96 ± 0.51
AAAAAAAAAAAAAAAACACACATATATATTATTGTA [CACACA_site3979]	8.65 ± 0.45
TTTTTTGTATTTTTCACACACTCTCTATCTCTCTCA [CACACA_site2095]	7.89 ± 0.65
AACTTTTTTATATGCACACATAAACAAGGATATATA [CACACA_site2874]	10.1 ± 0.49
AAAAAAAAAAAAAACACACACACACCCATACACATA [CACACA_site2860]	8.43 ± 0.6
TATATATACATAAAAACATGCAATATATACACATTA [TGCATGCA_site444]	7.71 ± 0.33
TACTTCGATAATAATCGTACATATATATTGTATTTA [XGTACX_site5700]	7.92 ± 0.46
CAAAAAATACGATGTTGTACTATGTATTCCTGATGT [XGTACX_site246]	7.45 ± 0.55
TTGTTTTGCTAAAAATGTACTCTATATAAAAGCTTT [XGTACX_site4027]	7.63 ± 0.35
TATATATATTATATATGTACACATATGTGAGAATGA [XGTACX_site2992]	8.3 ± 0.23
TATCAAAATAAATGCACACAAATTGCACATATCTAT [CACACA_site1097]	10.3 ± 0.11
ATTTATATGTAGATGTGTACTTAATTGTAATGTGTT [XGTACX_site6422]	7.9 ± 0.42
CAAAAACATACCTACACACACAATATGTATAAATAA [CACACA_site7617]	7.68 ± 0.44
ATATTTATGACCGTACGTACCTAACAATACAATCAA [XGTACX_site4511]	8.14 ± 0.37
TGAATTTCAAAACAGTGTACATTAATATATATATAA [XGTACX_site7951]	7.96 ± 0.12
